{"source": "PubChem BioAssay AID2546", "about": "(National Center for Advancing Translational Sciences (NCATS), 2010)", "note": "Where “and” joins values, the source holds several entries; their conditions need not be identical. Equal entries are not always repeated. Out of some 310,000 compounds screened, about 11,000 (3.5%) were called active. This list was built around the results that the source calls inconclusive (neither active nor inactive); the mix of calls is not that of the screen. The call rests on the fitted dose curve; in most records, active means well fitted inhibition curve with a large enough effect; inconclusive means small, poorly fitted or top-dose-only effect, or effect the other way; inactive means flat fitted curve, though single readings scatter. Potencies beside an inconclusive call are fits to weak or partial responses and may not hold up. On the % scale 0 is the no-effect control and ±100 the full control effect; potency means the concentration at half of the fitted maximal effect; tags describe the fitted curve by direction and shape.", "data": [{"experiment": "VP16 counterscreen qHTS for inhibitors of ROR gamma transcriptional activity;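 further: Gal4-VP16 expression switched on by copper sulfate through the metallothionein promoter; nearly all actives have a fitted effect of over 50% in size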", "conditions": "Drosophila S2 Gal4-VP16 UAS-luciferase, luminescence, 20 h; activity, negative = inhibition: at 53.6 µM (top of the series)", "values": [{"smiles": "NC(=O)C1CCN(c2ncnc3c(-c4ccccc4)nsc23)CC1", "Potency": "inconclusive: 0.794 µM [inhibitor, full curve]"}, {"smiles": "Cc1ccnc(Nc2nc3ccccc3o2)n1", "Potency": "active: 7.94 µM"}, {"smiles": "c1ccn2cc(-c3ccc4c(c3)OCO4)cc2c1", "activity, negative = inhibition": "inactive: -20%"}, {"smiles": "CCC(C)(C)n1nnnc1C(c1ccc(C)cc1)N1CCN(Cc2cccnc2)CC1", "note": "(configuration not stated)", "activity, negative = inhibition": "inactive: 4.86%"}, {"smiles": "COc1ccccc1Cn1c(=S)[nH]c2ccc(F)cc2c1=O", "Potency": "active: 11.2 µM"}, {"smiles": "O=S(=O)(NCC1CCN(c2ccc(S(=O)(=O)N3CCOCC3)cc2)CC1)c1ccccc1", "activity, negative = inhibition": "inactive: -80.5%"}, {"smiles": "Cc1ccc(-c2nc(NC(=O)c3nn(C)cc3[N+](=O)[O-])sc2C)cc1", "activity, negative = inhibition": "inactive: -3.58%"}, {"smiles": "CN(C)C(=O)CCN1CCOCC1", "activity, negative = inhibition": "inactive: -2.19%"}, {"smiles": "O=S(=O)(/N=C(/Nc1cccc2ccccc12)c1ccc(F)cc1)c1ccccc1", "activity, negative = inhibition": "inactive: 22.9%"}, {"smiles": "CCn1c(C)nc2cc(S(=O)(=O)C(F)(F)C(F)C(F)(F)F)ccc21", "note": "(configuration not stated)", "Potency": "active: 3.98 µM"}, {"smiles": "CC(C)NCC(=O)C12CC3CC(CC(C3)C1)C2", "activity, negative = inhibition": "inactive: 3.37%"}, {"smiles": "COc1ccc(N=C2SC(CC(=O)Nc3cccc(Cl)c3)C(=O)N2Cc2ccco2)cc1", "note": "(configuration not stated)", "Potency": "inconclusive: 35.5 µM [inhibitor, single point]"}, {"smiles": "CCn1c(O)c(C#N)c(C)cc1=O", "activity, negative = inhibition": "inactive: -0.744%"}, {"smiles": "COc1ccc(-c2cc(C(=O)N3CCCCCC3)c3ccccc3n2)c(OC)c1", "activity, negative = inhibition": "inactive: 1.2%"}, {"smiles": "COc1ccc(NC(=O)c2cc(-c3cccnc3)nc3ccc(C)cc23)cc1OC", "Potency": "inconclusive: 17.8 µM [inhibitor, single point]"}, {"smiles": "CCC(=O)NC(=S)Nc1ccc(NC(=O)c2cc3ccccc3o2)c(OC)c1", "Potency": "inconclusive: 35.5 µM [inhibitor, single point]"}, {"smiles": "COc1ccc(S(=O)(=O)Nc2cc(OC)c(NC(=O)c3ccco3)cc2OC)cc1", "activity, negative = inhibition": "inactive: 12.4%"}, {"smiles": "CCCCOc1ccc(S(=O)(=O)Nc2ccc(NC(C)=O)cc2)cc1", "Potency": "inconclusive: 35.5 µM [inhibitor, single point]"}, {"smiles": "CC(C)NC(=S)N/N=C/c1c[nH]c2ccccc12", "Potency": "active: 1.41 µM"}, {"smiles": "CC(=O)Nc1ccc(NC(=O)CCCc2ccccc2)cc1", "activity, negative = inhibition": "inactive: -3.69%"}, {"smiles": "COc1ccc(C(=O)c2sc3nc(-c4ccccc4)ccc3c2N)cc1OC", "Potency": "inconclusive: 12.6 µM [inhibitor, partial curve]"}, {"smiles": "Brc1ccc(-c2cn3c(n2)CCc2ccc4cccnc4c2-3)cc1", "Potency": "inconclusive: 3.55 µM [inhibitor, full curve, poor fit]"}, {"smiles": "COc1cc(/C=N/NC(=O)c2cccc3ccccc23)cc(OC)c1OC", "Potency": "inconclusive: 25.1 µM [inhibitor, single point]"}, {"smiles": "CCOc1ccc2nc(N/C(N)=N/C(=S)Nc3cccc(OC)c3)nc(C)c2c1", "Potency": "inconclusive: 5.01 µM [inhibitor, full curve]"}, {"smiles": "O=c1[nH]n2c(=O)c3c([nH]c2c1N=Nc1cccc(C(F)(F)F)c1)CCCC3", "Potency": "inconclusive: 12.6 µM [inhibitor, single point]"}, {"smiles": "O=C1C=CC(=O)C2=C1C1c3ccccc3C2c2ccccc21", "Potency": "inconclusive: 15.8 µM [inhibitor, single point]"}, {"smiles": "CCCOC(=O)c1ccc(NC(=O)c2c(Cl)ccc(Cl)c2OC)cc1", "Potency": "inconclusive: 5.62 µM [activator, single point]"}, {"smiles": "COc1ccc(CCNC(=O)C2CCN(S(=O)(=O)c3cccc4nsnc34)CC2)cc1OC", "activity, negative = inhibition": "inactive: -2.06%"}, {"smiles": "CC(C)c1ccc2c(c1)c(SC(C)(C)C)c(CC(C)(C)C(=O)O)n2Cc1ccc(Cl)cc1", "Potency": "inconclusive: 20 µM [inhibitor, single point] and inconclusive: 22.4 µM [inhibitor, single point]"}, {"smiles": "Cc1ccc(NCc2ccccc2OCc2ccccc2F)cc1", "Potency": "inconclusive: 25.1 µM [inhibitor, single point]"}, {"smiles": "CC(=O)Oc1ccc2nc(-c3ccco3)oc(=O)c2c1", "activity, negative = inhibition": "inactive: -13.1%"}, {"smiles": "COc1ccc(/C=N/NC(=O)c2cc(Br)ccc2O)cc1Cn1cc(Cl)cn1", "Potency": "inconclusive: 17.8 µM [inhibitor, single point]"}, {"smiles": "COC(=O)c1ccc2c(=O)n(CCCN3CCOCC3)c(=S)[nH]c2c1", "Potency": "inconclusive: 35.5 µM [inhibitor, single point]"}, {"smiles": "Cc1sc2nc(SCc3nc(-c4cccs4)no3)n(-c3ccccc3)c(=O)c2c1C", "Potency": "inconclusive: 12.6 µM [inhibitor, single point]"}, {"smiles": "O=C(Nc1cccc(O)c1)c1cc(-c2ccccc2Cl)on1", "Potency": "active: 1.26 µM"}, {"smiles": "O=C1[C@@H]2[C@@H]3C[C@@H]([C@H]4ON=C(c5ccc(Cl)cc5)[C@@H]34)[C@@H]2C(=O)N1C1CCCCC1", "Potency": "inconclusive: 31.6 µM [inhibitor, single point]"}, {"smiles": "NC(=O)c1c(NC(=S)Nc2ccccc2)sc2c1CCCC2", "Potency": "inconclusive: 35.5 µM [inhibitor, single point]"}, {"smiles": "N=c1c(C(=O)NCCc2ccccc2)cc2c(=O)n3ccccc3nc2n1CCCN1CCOCC1", "activity, negative = inhibition": "inactive: -8.7%"}, {"smiles": "COc1ccccc1N1CCN(S(=O)(=O)c2cc3c(cc2C)NC(=O)CO3)CC1", "Potency": "inconclusive: 35.5 µM [inhibitor, single point]"}, {"smiles": "COc1ccc(C(C)=O)cc1CSC(=N)N", "Potency": "inconclusive: 35.5 µM [inhibitor, single point]"}, {"smiles": "C[C@H](NC(=O)c1nc[nH]c1C(=O)N[C@@H](C)C(=O)OC(C)(C)C)C(=O)OC(C)(C)C", "Potency": "inconclusive: 35.5 µM [inhibitor, single point]"}, {"smiles": "COc1ccc(C2=NOC3(CC(=O)N(c4ccc5ccccc5c4)C3=O)C2)c(OC)c1", "note": "(configuration not stated)", "Potency": "inconclusive: 20 µM [inhibitor, single point]"}, {"smiles": "Cc1ccc[n+](CC(=O)c2cc3ccccc3oc2=O)c1", "Potency": "inconclusive: 22.4 µM [inhibitor, single point]"}, {"smiles": "O=C(CSc1nnnn1-c1cccc2c1CCCC2)N1CCCC1", "Potency": "inconclusive: 35.5 µM [inhibitor, single point]"}, {"smiles": "O=C(CN1C(=O)c2ccccc2S1(=O)=O)c1ccc2c(c1)OCCO2", "Potency": "active: 0.562 µM"}, {"smiles": "O=C(CSc1nccc(=O)[nH]1)N1CCN(c2ccccc2)CC1", "activity, negative = inhibition": "inactive: -13.6%"}, {"smiles": "COc1ccccc1C(=O)CC(=O)C(=O)Nc1cccc([N+](=O)[O-])c1C", "Potency": "active: 12.6 µM"}]}]}
